{"source": "ChEMBL document CHEMBL5674866", "about": "(J Biol Chem, 2015)", "key": {"KYSE-150 cell line [1]": {"system": "KYSE-150 cell line", "assay": "Effect on cellular post-translational modifications on histone H3 (TKQTAR) - K4 mono-methylated in human KYSE-150 cells assessed as relative abundance at 5 by mass spectrometric analysis (reference value: 10.5+/-0.3)", "assay_type": "functional", "conditions": "dose 5 µM", "procedure,_shortened": "(§1)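 Histones acid-extracted from SMYD2-overexpressing KYSE-150 cells treated with vehicle or 5 μM inhibitor. Samples derivatized with propionic anhydride, then trypsin-digested for 6 h at 37 °C. Each modification's relative abundance on a peptide sequence, as a percentage, was quantified from MS and MS/MS spectra and compared with vehicle.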"}, "[2]": {"target": "Mitogen-activated protein kinase kinase kinase 9 (Homo sapiens, UniProt P80192)", "assay": "Inhibition of human MLK1 by discoverX kinome scan assay"}, "[3]": {"target": "Dual specificity tyrosine-phosphorylation-regulated kinase 1B (Homo sapiens, UniProt Q9Y463)", "assay": "Inhibition of human DYRK1B by discoverX kinome scan assay"}, "KYSE-150 cell line [4]": {"system": "KYSE-150 cell line", "assay": "Effect on cellular post-translational modifications on histone H4 (KVLR) - K20 dimethylated in human KYSE-150 cells assessed as fold change by mass spectrometric analysis", "assay_type": "functional", "procedure,_shortened": "as §1"}, "[5]": {"target": "Phosphatidylinositol 4,5-bisphosphate 3-kinase catalytic subunit alpha isoform (Homo sapiens, UniProt P42336, I800L)", "assay": "Inhibition of human PIK3CA I800L mutant by discoverX kinome scan assay"}, "[6]": {"target": "cAMP-dependent protein kinase catalytic subunit PRKX (Homo sapiens, UniProt P51817)", "sequence (P51817 whole entry)": "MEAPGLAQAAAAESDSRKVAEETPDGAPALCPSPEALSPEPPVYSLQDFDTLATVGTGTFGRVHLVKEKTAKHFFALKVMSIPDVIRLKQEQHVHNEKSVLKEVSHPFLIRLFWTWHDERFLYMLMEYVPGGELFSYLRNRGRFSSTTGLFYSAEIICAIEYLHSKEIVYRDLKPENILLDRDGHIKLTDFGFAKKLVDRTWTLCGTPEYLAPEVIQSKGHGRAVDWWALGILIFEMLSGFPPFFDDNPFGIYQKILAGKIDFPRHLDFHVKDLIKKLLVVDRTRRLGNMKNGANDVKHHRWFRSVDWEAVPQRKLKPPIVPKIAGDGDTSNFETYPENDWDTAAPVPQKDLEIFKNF", "assay": "Inhibition of PRKX (unknown origin) by discoverX kinome scan assay"}, "[7]": {"target": "Membrane-associated tyrosine- and threonine-specific cdc2-inhibitory kinase (Homo sapiens, UniProt Q99640)", "assay": "Inhibition of human PKMYT1 by discoverX kinome scan assay"}, "[8]": {"target": "Serine/threonine-protein kinase 38-like (Homo sapiens, UniProt Q9Y2H1)", "assay": "Inhibition of human NDR2 by discoverX kinome scan assay"}, "[9]": {"target": "Serine/threonine-protein kinase PAK 1 (Homo sapiens, UniProt Q13153)", "assay": "Inhibition of human PAK1 by discoverX kinome scan assay"}, "[10]": {"target": "Serine/threonine-protein kinase Nek1 (Homo sapiens, UniProt Q96PY6)", "sequence (Q96PY6 whole entry)": "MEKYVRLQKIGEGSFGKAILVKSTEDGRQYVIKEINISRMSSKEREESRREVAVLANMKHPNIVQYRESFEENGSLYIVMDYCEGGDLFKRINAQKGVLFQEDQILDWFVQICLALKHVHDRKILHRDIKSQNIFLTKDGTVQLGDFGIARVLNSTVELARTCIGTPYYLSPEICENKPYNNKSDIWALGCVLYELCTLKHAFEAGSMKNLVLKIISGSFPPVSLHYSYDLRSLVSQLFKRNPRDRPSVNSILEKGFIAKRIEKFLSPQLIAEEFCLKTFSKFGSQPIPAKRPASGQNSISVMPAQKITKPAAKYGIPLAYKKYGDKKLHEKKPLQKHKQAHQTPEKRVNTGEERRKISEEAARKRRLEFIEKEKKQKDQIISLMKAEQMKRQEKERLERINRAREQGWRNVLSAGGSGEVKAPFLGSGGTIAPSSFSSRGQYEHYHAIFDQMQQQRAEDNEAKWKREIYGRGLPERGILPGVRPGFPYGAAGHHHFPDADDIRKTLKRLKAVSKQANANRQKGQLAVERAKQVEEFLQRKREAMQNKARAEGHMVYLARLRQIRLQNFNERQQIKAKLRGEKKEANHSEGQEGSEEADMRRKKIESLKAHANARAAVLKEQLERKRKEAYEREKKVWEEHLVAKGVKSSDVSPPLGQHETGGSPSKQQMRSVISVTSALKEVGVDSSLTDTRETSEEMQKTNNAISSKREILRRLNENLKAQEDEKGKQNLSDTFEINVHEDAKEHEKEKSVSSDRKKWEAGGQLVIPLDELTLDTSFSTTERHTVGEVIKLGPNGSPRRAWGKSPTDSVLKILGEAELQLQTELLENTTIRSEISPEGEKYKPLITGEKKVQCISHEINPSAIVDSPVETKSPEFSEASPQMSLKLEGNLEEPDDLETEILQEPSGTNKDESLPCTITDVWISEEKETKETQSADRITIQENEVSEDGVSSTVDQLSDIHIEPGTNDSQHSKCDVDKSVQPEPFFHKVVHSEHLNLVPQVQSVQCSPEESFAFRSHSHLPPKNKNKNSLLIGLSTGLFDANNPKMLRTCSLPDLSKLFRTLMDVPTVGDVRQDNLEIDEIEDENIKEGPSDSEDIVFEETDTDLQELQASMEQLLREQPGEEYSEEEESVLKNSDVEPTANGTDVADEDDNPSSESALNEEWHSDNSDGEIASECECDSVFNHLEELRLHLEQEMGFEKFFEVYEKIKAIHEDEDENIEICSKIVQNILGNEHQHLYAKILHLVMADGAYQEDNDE", "assay": "Inhibition of human NEK1 by discoverX kinome scan assay"}, "[11]": {"target": "Serine/threonine-protein kinase mTOR (Homo sapiens, UniProt P42345)", "assay": "Inhibition of human MTOR by discoverX kinome scan assay"}, "[12]": {"target": "Serine/threonine-protein kinase PLK4 (Homo sapiens, UniProt O00444)", "assay": "Inhibition of human PLK4 by discoverX kinome scan assay"}, "[13]": {"target": "Mitogen-activated protein kinase kinase kinase 11 (Homo sapiens, UniProt Q16584)", "sequence (Q16584 whole entry)": "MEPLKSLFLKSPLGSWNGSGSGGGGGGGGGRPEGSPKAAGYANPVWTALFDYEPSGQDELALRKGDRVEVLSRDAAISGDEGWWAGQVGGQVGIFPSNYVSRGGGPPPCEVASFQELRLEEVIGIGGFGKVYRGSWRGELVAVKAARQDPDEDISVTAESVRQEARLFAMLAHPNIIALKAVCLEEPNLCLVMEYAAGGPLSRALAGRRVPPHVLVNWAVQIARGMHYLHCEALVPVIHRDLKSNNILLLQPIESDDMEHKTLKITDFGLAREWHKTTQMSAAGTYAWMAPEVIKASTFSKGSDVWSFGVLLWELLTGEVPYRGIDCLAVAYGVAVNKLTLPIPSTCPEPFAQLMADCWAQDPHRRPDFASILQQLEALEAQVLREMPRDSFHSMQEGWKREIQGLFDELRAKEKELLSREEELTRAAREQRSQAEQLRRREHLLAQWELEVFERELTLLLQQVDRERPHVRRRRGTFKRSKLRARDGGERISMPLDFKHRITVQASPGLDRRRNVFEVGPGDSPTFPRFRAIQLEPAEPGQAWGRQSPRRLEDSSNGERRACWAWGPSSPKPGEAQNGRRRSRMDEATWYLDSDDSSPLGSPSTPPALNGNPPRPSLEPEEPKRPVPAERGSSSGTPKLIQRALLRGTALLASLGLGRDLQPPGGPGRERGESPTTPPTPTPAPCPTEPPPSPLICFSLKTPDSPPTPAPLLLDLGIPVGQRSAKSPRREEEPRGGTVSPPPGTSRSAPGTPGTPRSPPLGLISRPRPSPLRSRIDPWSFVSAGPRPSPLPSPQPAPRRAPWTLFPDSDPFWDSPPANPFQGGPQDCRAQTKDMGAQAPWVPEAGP", "assay": "Inhibition of human MLK3 by discoverX kinome scan assay"}, "[14]": {"target": "Phosphatidylinositol 5-phosphate 4-kinase type-2 gamma (Homo sapiens, UniProt Q8TBX8)", "sequence (Q8TBX8 whole entry)": "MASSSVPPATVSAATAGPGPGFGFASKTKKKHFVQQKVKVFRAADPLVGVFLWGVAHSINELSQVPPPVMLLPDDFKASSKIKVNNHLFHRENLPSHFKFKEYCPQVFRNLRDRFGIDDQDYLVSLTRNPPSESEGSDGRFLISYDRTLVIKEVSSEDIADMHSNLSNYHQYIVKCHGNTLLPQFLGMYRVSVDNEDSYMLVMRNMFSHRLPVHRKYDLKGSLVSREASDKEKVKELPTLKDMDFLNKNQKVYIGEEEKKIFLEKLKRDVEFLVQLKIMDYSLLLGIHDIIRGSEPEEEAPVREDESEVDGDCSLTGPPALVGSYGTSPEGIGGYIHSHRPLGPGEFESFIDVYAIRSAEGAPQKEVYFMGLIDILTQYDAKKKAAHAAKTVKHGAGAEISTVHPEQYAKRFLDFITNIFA", "assay": "Inhibition of human PIP5K2C by discoverX kinome scan assay"}, "[15]": {"target": "Phosphatidylinositol 4,5-bisphosphate 3-kinase catalytic subunit alpha isoform (Homo sapiens, UniProt P42336, H1047L)", "assay": "Inhibition of human PIK3CA H1047L mutant by discoverX kinome scan assay"}, "[16]": {"target": "Phosphatidylinositol 4,5-bisphosphate 3-kinase catalytic subunit alpha isoform (Homo sapiens, UniProt P42336, E542K)", "assay": "Inhibition of human PIK3CA E542K mutant by discoverX kinome scan assay"}, "[17]": {"target": "Mitogen-activated protein kinase 12 (Homo sapiens, UniProt P53778)", "assay": "Inhibition of human p38-gamma by discoverX kinome scan assay"}, "[18]": {"target": "Serine/threonine-protein kinase Nek6 (Homo sapiens, UniProt Q9HC98)", "sequence (Q9HC98 whole entry)": "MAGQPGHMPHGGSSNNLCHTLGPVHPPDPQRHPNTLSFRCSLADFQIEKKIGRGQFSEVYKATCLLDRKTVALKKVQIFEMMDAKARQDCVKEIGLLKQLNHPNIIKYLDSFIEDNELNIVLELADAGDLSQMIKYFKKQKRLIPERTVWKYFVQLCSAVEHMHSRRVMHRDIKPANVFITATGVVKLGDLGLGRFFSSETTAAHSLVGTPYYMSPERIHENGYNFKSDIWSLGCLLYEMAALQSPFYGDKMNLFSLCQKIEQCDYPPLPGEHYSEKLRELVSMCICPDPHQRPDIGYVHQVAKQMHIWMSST", "assay": "Inhibition of human NEK6 by discoverX kinome scan assay"}, "[19]": {"target": "Serine/threonine-protein kinase 3 (Homo sapiens, UniProt Q13188)", "assay": "Inhibition of human MST2 by discoverX kinome scan assay"}, "[20]": {"target": "Calcium-dependent protein kinase 1 (Plasmodium falciparum, UniProt P62344)", "assay": "Inhibition of Plasmodium falciparum CDPK1 by discoverX kinome scan assay"}, "KYSE-150 cell line [21]": {"system": "KYSE-150 cell line", "assay": "Effect on cellular post-translational modifications on histone H3 (TKQTAR) - K4 di-methylated in human KYSE-150 cells assessed as fold change by mass spectrometric analysis", "assay_type": "functional", "procedure,_shortened": "as §1"}, "[22]": {"target": "Cyclin-dependent kinase 15 (Homo sapiens, UniProt Q96Q40)", "sequence (Q96Q40 whole entry)": "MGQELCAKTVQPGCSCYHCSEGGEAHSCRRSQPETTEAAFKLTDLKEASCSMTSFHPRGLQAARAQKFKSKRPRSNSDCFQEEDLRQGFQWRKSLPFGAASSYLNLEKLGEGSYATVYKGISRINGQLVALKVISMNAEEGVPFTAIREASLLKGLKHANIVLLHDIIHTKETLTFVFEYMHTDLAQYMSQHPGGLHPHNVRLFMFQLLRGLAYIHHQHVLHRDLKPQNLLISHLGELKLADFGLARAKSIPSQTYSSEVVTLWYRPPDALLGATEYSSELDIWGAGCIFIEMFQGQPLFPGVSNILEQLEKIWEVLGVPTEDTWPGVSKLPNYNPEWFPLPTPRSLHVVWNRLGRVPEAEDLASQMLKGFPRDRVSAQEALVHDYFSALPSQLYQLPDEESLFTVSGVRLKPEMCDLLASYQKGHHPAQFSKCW", "assay": "Inhibition of human PFTAIRE2 by discoverX kinome scan assay"}, "[23]": {"target": "Platelet-derived growth factor receptor beta (Homo sapiens, UniProt P09619)", "assay": "Inhibition of human PDGFRB by discoverX kinome scan assay"}, "Estrogen receptor": {"target": "Estrogen receptor (Homo sapiens, UniProt P03372)", "assay": "Inhibition of human ER-alpha by Eurofins-CEREP pharmacology platform analysis"}, "[24]": {"target": "Muscle, skeletal receptor tyrosine-protein kinase (Homo sapiens, UniProt O15146)", "assay": "Inhibition of human MUSK by discoverX kinome scan assay"}, "[25]": {"target": "Serine/threonine-protein kinase pim-1 (Homo sapiens, UniProt P11309)", "assay": "Inhibition of human PIM1 by discoverX kinome scan assay"}, "[26]": {"assay": "Inhibition of human ABL1 pF317I mutant by discoverX kinome scan assay"}, "KYSE-150 cell line [27]": {"system": "KYSE-150 cell line", "assay": "Effect on cellular post-translational modifications on histone H3 (KSTGGKAPR) - K9 acetylated, K14 unmethylated in human KYSE-150 cells assessed as fold change by mass spectrometric analysis", "assay_type": "functional"}, "[28]": {"assay": "Inhibition of human EGFR P753S by discoverX kinome scan assay"}, "[29]": {"target": "Protein kinase C theta type (Homo sapiens, UniProt Q04759)", "assay": "Inhibition of PRKCQ (unknown origin) by discoverX kinome scan assay"}, "[30]": {"target": "Serine/threonine-protein kinase Nek4 (Homo sapiens, UniProt P51957)", "sequence (P51957 whole entry)": "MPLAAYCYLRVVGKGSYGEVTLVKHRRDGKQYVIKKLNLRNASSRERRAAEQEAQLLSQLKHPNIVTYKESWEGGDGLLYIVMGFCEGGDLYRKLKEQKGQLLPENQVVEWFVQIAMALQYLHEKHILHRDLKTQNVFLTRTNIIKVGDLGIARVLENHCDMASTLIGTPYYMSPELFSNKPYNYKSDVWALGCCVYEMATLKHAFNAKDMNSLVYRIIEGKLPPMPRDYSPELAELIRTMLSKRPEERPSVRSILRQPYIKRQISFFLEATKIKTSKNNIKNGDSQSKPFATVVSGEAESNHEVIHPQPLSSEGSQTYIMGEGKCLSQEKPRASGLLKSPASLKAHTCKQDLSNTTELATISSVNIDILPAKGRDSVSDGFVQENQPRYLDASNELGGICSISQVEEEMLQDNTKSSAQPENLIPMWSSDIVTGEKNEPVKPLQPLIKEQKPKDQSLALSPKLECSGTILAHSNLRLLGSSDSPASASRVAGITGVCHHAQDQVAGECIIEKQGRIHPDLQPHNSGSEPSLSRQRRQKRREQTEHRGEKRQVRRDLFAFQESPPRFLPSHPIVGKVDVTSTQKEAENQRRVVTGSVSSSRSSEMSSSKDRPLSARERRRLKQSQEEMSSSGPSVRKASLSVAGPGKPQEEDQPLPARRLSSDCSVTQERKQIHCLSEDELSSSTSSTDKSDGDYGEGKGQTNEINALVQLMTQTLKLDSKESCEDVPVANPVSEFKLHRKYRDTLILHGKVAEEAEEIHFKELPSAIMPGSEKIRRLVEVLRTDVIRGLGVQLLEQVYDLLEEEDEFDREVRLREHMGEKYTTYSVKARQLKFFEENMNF", "assay": "Inhibition of human NEK4 by discoverX kinome scan assay"}, "KYSE-150 cell line [31]": {"system": "KYSE-150 cell line", "assay": "Effect on cellular post-translational modifications on histone H3 (KSTGGKAPR) - K9 trimethylated, K14 acetylated in human KYSE-150 cells assessed as fold change by mass spectrometric analysis", "assay_type": "functional", "procedure,_shortened": "as §1"}, "KYSE-150 cell line [32]": {"system": "KYSE-150 cell line", "assay": "Effect on cellular post-translational modifications on histone H3 (KSTGGKAPR) - K9 dimethylated, K14 unmethylated in human KYSE-150 cells assessed as fold change by mass spectrometric analysis", "assay_type": "functional"}, "[33]": {"target": "Mitogen-activated protein kinase 11 (Homo sapiens, UniProt Q15759)", "assay": "Inhibition of human p38-beta by discoverX kinome scan assay"}, "[34]": {"assay": "Inhibition of human ABL1-p by discoverX kinome scan assay"}, "KYSE-150 cell line [35]": {"system": "KYSE-150 cell line", "assay": "Effect on cellular post-translational modifications on histone H4 (KVLR) - K20 monomethylated in human KYSE-150 cells assessed as fold change by mass spectrometric analysis", "assay_type": "functional", "procedure,_shortened": "as §1"}, "MCF7": {"system": "MCF7", "assay": "Antiproliferative activity against human MCF7 cells measured after 7 day by celltitre-glo luminescent assay", "assay_type": "functional, cell-based", "conditions": "MCF7, 168 h"}, "[36]": {"target": "Serine/threonine-protein kinase 26 (Homo sapiens, UniProt Q9P289)", "sequence (Q9P289 whole entry)": "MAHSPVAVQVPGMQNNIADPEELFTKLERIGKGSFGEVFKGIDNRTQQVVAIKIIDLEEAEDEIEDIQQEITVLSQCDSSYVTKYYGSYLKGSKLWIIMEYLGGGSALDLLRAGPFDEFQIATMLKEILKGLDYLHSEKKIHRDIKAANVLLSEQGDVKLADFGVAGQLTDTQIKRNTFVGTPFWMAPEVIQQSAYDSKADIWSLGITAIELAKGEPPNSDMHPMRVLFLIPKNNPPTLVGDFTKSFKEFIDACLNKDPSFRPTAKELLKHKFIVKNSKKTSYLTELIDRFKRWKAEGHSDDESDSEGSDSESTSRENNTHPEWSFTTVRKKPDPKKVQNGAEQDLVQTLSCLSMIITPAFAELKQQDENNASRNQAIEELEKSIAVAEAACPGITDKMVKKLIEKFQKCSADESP", "assay": "Inhibition of human MST4 by discoverX kinome scan assay"}, "KYSE-150 cell line [37]": {"system": "KYSE-150 cell line", "assay": "Effect on cellular post-translational modifications on histone H3 (EIAQDFKTDLR) - K79 unmethylated in human KYSE-150 cells assessed as relative abundance at 5 by mass spectrometric analysis (reference value: 78.6+/-4.1)", "assay_type": "functional", "conditions": "dose 5 µM"}}, "data": [{"smiles": "Cc1cn(CCN2CCN(c3ccccc3-c3cc(C#N)cc(C(=O)NCCCN4CCCC4)c3)CC2)c2ccccc12", "values": [{"measurement": "Activity", "setting": "KYSE-150 cell line [1]", "result": 13}, {"measurement": "IC50", "setting": "[2]", "result": "> 20", "unit": "µM"}, {"measurement": "IC50", "setting": "[3]", "result": 14.5, "unit": "µM"}, {"measurement": "fold change (FC)", "setting": "KYSE-150 cell line [4]", "result": 1.07}, {"measurement": "IC50", "setting": "[5]", "result": "> 20", "unit": "µM"}, {"measurement": "IC50", "setting": "[6]", "result": "> 20", "unit": "µM"}, {"measurement": "IC50", "setting": "[7]", "result": "> 20", "unit": "µM"}, {"measurement": "IC50", "setting": "[8]", "result": "> 20", "unit": "µM"}, {"measurement": "IC50", "setting": "[9]", "result": "> 20", "unit": "µM"}, {"measurement": "IC50", "setting": "[10]", "result": "> 20", "unit": "µM"}, {"measurement": "IC50", "setting": "[11]", "result": "> 20", "unit": "µM"}, {"measurement": "IC50", "setting": "[12]", "result": "> 20", "unit": "µM"}, {"measurement": "IC50", "setting": "[13]", "result": "> 20", "unit": "µM"}, {"measurement": "IC50", "setting": "[14]", "result": "> 20", "unit": "µM"}, {"measurement": "IC50", "setting": "[15]", "result": "> 20", "unit": "µM"}, {"measurement": "IC50", "setting": "[16]", "result": "> 20", "unit": "µM"}, {"measurement": "IC50", "setting": "[17]", "result": "> 20", "unit": "µM"}, {"measurement": "IC50", "setting": "[18]", "result": "> 20", "unit": "µM"}, {"measurement": "IC50", "setting": "[19]", "result": "> 20", "unit": "µM"}, {"measurement": "IC50", "setting": "[20]", "result": "> 20", "unit": "µM"}, {"measurement": "fold change (FC)", "setting": "KYSE-150 cell line [21]", "result": 1.2}, {"measurement": "IC50", "setting": "[22]", "result": "> 20", "unit": "µM"}, {"measurement": "IC50", "setting": "[23]", "result": "> 20", "unit": "µM"}, {"measurement": "IC50", "setting": "Estrogen receptor", "result": "> 10", "unit": "µM"}, {"measurement": "IC50", "setting": "[24]", "result": "> 20", "unit": "µM"}, {"measurement": "IC50", "setting": "[25]", "result": "> 20", "unit": "µM"}, {"measurement": "IC50", "setting": "[26]", "result": "> 20", "unit": "µM"}, {"measurement": "fold change (FC)", "setting": "KYSE-150 cell line [27]", "result": 0.9}, {"measurement": "IC50", "setting": "[28]", "result": "> 20", "unit": "µM"}, {"measurement": "IC50", "setting": "[29]", "result": "> 20", "unit": "µM"}, {"measurement": "IC50", "setting": "[30]", "result": "> 20", "unit": "µM"}, {"measurement": "fold change (FC)", "setting": "KYSE-150 cell line [31]", "result": 1.1}, {"measurement": "fold change (FC)", "setting": "KYSE-150 cell line [32]", "result": 1.1}, {"measurement": "IC50", "setting": "[33]", "result": "> 20", "unit": "µM"}, {"measurement": "IC50", "setting": "[34]", "result": "> 20", "unit": "µM"}, {"measurement": "fold change (FC)", "setting": "KYSE-150 cell line [35]", "result": 0.88}, {"measurement": "IC50", "setting": "MCF7", "result": 0.3, "unit": "µM"}, {"measurement": "IC50", "setting": "[36]", "result": "> 20", "unit": "µM"}, {"measurement": "Activity", "setting": "KYSE-150 cell line [37]", "result": 74.8}]}]}
